# This is one part of the list.
# B1: Nictaba (Nicotiana tabacum), Q94EW1 (protein)
# chain: MQGQWIAARDLSITWVDNPQYWTWKTVDPNIEVAELRRVAWLDIYGKIETKNLIRKTSYAVYLVFKLTDNPRELERATASLRFVNEVAEGAGIEGTTVFISKKKKLPGELGRFPHLRSDGWLEIKLGEFFNNLGEDGEVEMRLMEINDKTWKSGIIVKGFDIRPN
# Assays:
# Assay in all cases: glycan array binding signal (z-score within array); higher = stronger binding
# Conditions in all cases: glycan notation: IUPAC condensed, linker removed
# [1] = target: Fuc(a1-2)Gal(b1-4)GlcNAc(b1-2)Man(a1-3)[Fuc(a1-2)Gal(b1-4)GlcNAc(b1-2)Man(a1-6)]Man(b1-4)GlcNAc(b1-4)[Fuc(a1-6)]GlcNAc
# Method in brief: (§1)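 Columns mapping to the same glycan were averaged after glycan names were converted to IUPAC-condensed notation. The data come from 3228 arrays in the Consortium for Functional Glycomics database, limited to those with an available protein sequence. Binding is reported as a within-array Z-score averaged across arrays of one protein sequence and across linkers.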
# [2] = target: Fuc(a1-2)Gal(b1-4)GlcNAc(b1-2)[Fuc(a1-2)Gal(b1-4)GlcNAc(b1-4)]Man(a1-3)[Fuc(a1-2)Gal(b1-4)GlcNAc(b1-2)Man(a1-6)]Man(b1-4)GlcNAc(b1-4)GlcNAc
# Method in brief: as §1
# [3] = target: Fuc(a1-2)Gal(b1-4)GlcNAc(b1-3)Gal(b1-4)GlcNAc
# Method in brief: as §1
# [4] = target: Fuc(a1-2)Gal(b1-4)GlcNAc(b1-3)Gal(b1-4)GlcNAc(b1-2)Man(a1-3)[Fuc(a1-2)Gal(b1-4)GlcNAc(b1-3)Gal(b1-4)GlcNAc(b1-2)Man(a1-6)]Man(b1-4)GlcNAc(b1-4)GlcNAc
# Method in brief: as §1
# [5] = target: Fuc(a1-2)Gal(b1-4)GlcNAc(b1-3)Gal(b1-4)GlcNAc(b1-3)Gal(b1-4)GlcNAc
# Method in brief: as §1
# [6] = target: Fuc(a1-2)Gal(b1-4)GlcNAc(b1-3)GalNAc
# Method in brief: as §1
# [7] = target: Fuc(a1-2)Gal(b1-4)GlcNAc(b1-3)[Fuc(a1-2)Gal(b1-4)GlcNAc(b1-6)]GalNAc
# Method in brief: as §1
# [8] = target: Fuc(a1-2)Gal(b1-4)GlcNAc(b1-3)[Fuc(a1-3)[Gal(b1-4)]GlcNAc(b1-6)]Gal(b1-4)Glc
# Method in brief: as §1
# [9] = target: Fuc(a1-2)Gal(b1-4)GlcNAc(b1-6)GalNAc
# Method in brief: as §1
# [10] = target: Fuc(a1-2)Gal(b1-4)GlcNAc6S
# Method in brief: as §1
# [11] = target: Fuc(a1-2)Gal(b1-4)[Fuc(a1-3)]GalNAc(b1-3)Gal(b1-4)[Fuc(a1-3)]GlcNAc
# Method in brief: as §1
# [12] = target: Fuc(a1-2)Gal(b1-4)[Fuc(a1-3)]GalNAc(b1-3)Gal(b1-4)[Fuc(a1-3)]GlcNAc(b1-3)Gal(b1-4)[Fuc(a1-3)]GalNAc
# Method in brief: as §1
# [13] = target: Fuc(a1-2)Gal(b1-4)[Fuc(a1-3)]GlcNAc
# Method in brief: as §1
# [14] = target: Fuc(a1-2)Gal(b1-4)[Fuc(a1-3)]GlcNAc(b1-2)Man(a1-3)[Fuc(a1-2)Gal(b1-4)[Fuc(a1-3)]GlcNAc(b1-2)Man(a1-6)]Man(b1-4)GlcNAc(b1-4)GlcNAc
# Method in brief: as §1
# [15] = target: Fuc(a1-2)Gal(b1-4)[Fuc(a1-3)]GlcNAc(b1-2)Man(a1-3)[Fuc(a1-2)Gal(b1-4)[Fuc(a1-3)]GlcNAc(b1-2)Man(a1-6)]Man(b1-4)GlcNAc(b1-4)[Fuc(a1-6)]GlcNAc
# Method in brief: as §1
# [16] = target: Fuc(a1-2)Gal(b1-4)[Fuc(a1-3)]GlcNAc(b1-2)[Fuc(a1-2)Gal(b1-4)[Fuc(a1-3)]GlcNAc(b1-4)]Man(a1-3)[Fuc(a1-2)Gal(b1-4)[Fuc(a1-3)]GlcNAc(b1-2)Man(a1-6)]Man(b1-4)GlcNAc(b1-4)GlcNAc
# Method in brief: as §1
# [17] = target: Fuc(a1-2)Gal(b1-4)[Fuc(a1-3)]GlcNAc(b1-3)Gal(b1-4)[Fuc(a1-3)]GlcNAc
# Method in brief: as §1
# [18] = target: Fuc(a1-2)Gal(b1-4)[Fuc(a1-3)]GlcNAc(b1-3)Gal(b1-4)[Fuc(a1-3)]GlcNAc(b1-3)Gal(b1-4)[Fuc(a1-3)]GlcNAc
# Method in brief: as §1
# [19] = target: Fuc(a1-2)Gal(b1-4)[Fuc(a1-3)]GlcNAc(b1-3)GalNAc
# Method in brief: as §1
# [20] = target: Fuc(a1-2)Gal(b1-4)[Fuc(a1-3)]GlcNAc(b1-3)[Neu5Ac(a2-6)Gal(b1-4)GlcNAc(b1-6)]Gal(b1-4)Glc
# Method in brief: as §1
# [21] = target: Fuc(a1-2)Gal3S(b1-4)GlcNAc
# Method in brief: as §1
# [22] = target: Fuc(a1-2)Gal6S(b1-3)GlcNAc
# Method in brief: as §1
binder,measurement,setting,value
B1,glycan array binding signal (z-score),[1],0.325
same,glycan array binding signal (z-score),[2],0.135
same,glycan array binding signal (z-score),[3],-0.274
same,glycan array binding signal (z-score),[4],3.54
same,glycan array binding signal (z-score),[5],-0.301
same,glycan array binding signal (z-score),[6],-0.258
same,glycan array binding signal (z-score),[7],-0.2
same,glycan array binding signal (z-score),[8],-0.384
same,glycan array binding signal (z-score),[9],-0.385
same,glycan array binding signal (z-score),[10],-0.261
same,glycan array binding signal (z-score),[11],-0.268
same,glycan array binding signal (z-score),[12],-0.365
same,glycan array binding signal (z-score),[13],-0.289
same,glycan array binding signal (z-score),[14],1.9
same,glycan array binding signal (z-score),[15],5.19
same,glycan array binding signal (z-score),[16],1.78
same,glycan array binding signal (z-score),[17],-0.299
same,glycan array binding signal (z-score),[18],-0.29
same,glycan array binding signal (z-score),[19],-0.21
same,glycan array binding signal (z-score),[20],-0.388
same,glycan array binding signal (z-score),[21],-0.39
same,glycan array binding signal (z-score),[22],-0.386

# From the supplement of paper PMC8728848
